Data as given in PMC9574860, “Chemical Toolkit for PARK7: Potent, Selective, and High-Throughput” (Journal of Medicinal Chemistry, 2022).
Hit rate of the full screen: of about 7,900 compounds, about 400 (5.1%) showed an effect of 50% or more. The list shows a part of the results.

Target: Parkinson's disease protein 7 (PARK7/DJ1) (human, UniProt Q99497)
Assay: primary screen, percent inhibition; read as competition with a fluorescent probe by fluorescence polarization; higher = more effect of the substance
Conditions: 100 µM
Procedure, shortened: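 Covalent fragments at 100 μM final were incubated 2 h with 0.2 μM PARK7, then 20 nM probe JYQ-107 added for a further 2 h. Fluorescence polarization read at 480/520 nm; relative FP loss versus reference controls gave remaining enzyme activity.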

Sequence of Parkinson's disease protein 7 (PARK7/DJ1) (Q99497 whole entry, looked up): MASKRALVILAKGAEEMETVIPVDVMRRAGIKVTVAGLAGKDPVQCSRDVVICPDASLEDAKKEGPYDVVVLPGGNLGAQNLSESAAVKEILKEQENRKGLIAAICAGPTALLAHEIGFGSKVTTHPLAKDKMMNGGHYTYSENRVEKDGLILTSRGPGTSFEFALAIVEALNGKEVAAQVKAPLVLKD

SMILES	Inhibition % [%]
CC1(C)C(=O)NC1C1CCN(Cc2ncccc2Cl)CC1 (stereo not drawn)	8.54
C=CC(=O)N(C)CC1=CCSC1	14.9
C=CC(=O)NCC1(c2ccccn2)CCC1	8.99
Cc1ccc([C@@H]2CN(Cc3ccccc3)C[C@H]2S(=O)(=O)F)cc1 (racemic)	5.8
C=CC(=O)N1CC(NC(C)=O)C1	9.47
C=CC(=O)N1CC[C@@H](N2CCOCC2)[C@H]1C	5.26
C=CC(=O)Nc1ccc(N2CCCC2=O)cc1	11.3
C=CC(=O)N1CCOCC1c1ccccc1 (stereo not drawn)	0.671
N#CNC(=O)c1ccccc1	8.33
O=C(CCl)N1CCN(c2ccccc2[N+](=O)[O-])CC1	80.7
Cc1cccc(NC(=O)CCl)c1C	16.2
COc1cccc(CN(C)C(=O)CCl)c1OC	74.5
CC1CC(N2CCCC2c2cccc(N(C)C)c2)C(=O)O1 (stereo not drawn)	2.45
Cc1cccc(B2OC(C)(C)C(C)(C)O2)c1C#N	25.3
C=CC(=O)NC1CCCc2cnn(C(C)C)c21 (stereo not drawn)	12.6
C=CC(=O)NCc1cc(C)no1	5.45
C=CC(=O)N(C)C1CCCc2cccnc21 (stereo not drawn)	7.75
N#Cc1nccn1CC#Cc1ccc(F)cc1	5.26
O=C(CCl)NCc1ccc(C(=O)N2CCOCC2)cc1	19.5
O=C(CCl)N(Cc1ccsc1)C1CC1	14.9
CN(CC12CC3CC(CC(C3)C1)C2)C(=O)CCl	9.71
Cn1cc(C=C(C#N)c2ccc3ccccc3n2)cn1	4.42
CNC(=O)C(C#N)=C1SC(C)C(=O)N1c1ccc(C)cc1 (stereo not drawn)	7.7
Cc1ccccc1C1=NC(=Cc2cnn(C)c2)C(=O)O1	12.4
C=CC(=O)Nc1cccc(-c2cn3c(n2)CCCC3)c1	14.3
O=C(CCl)Nc1ccc2c(c1)OC(F)(F)O2	37.9

SMILES	Inhibition % [%]
C=CC(=O)N(C)Cc1cn2c(n1)CCCC2.O=C(O)C(F)(F)F	2.8
C=CC(=O)NCC1CCOC1c1c(C)nn(C)c1C (stereo not drawn)	4.65
COCc1cc(C#N)no1	3.95
C=CC(=O)NCC1CCC2(CCCCC2)O1 (stereo not drawn)	6.23
N#Cc1nc(N2CCOCC2)ccc1Cl	8.71
Cc1cccc(CN2CCN(C(=O)CCl)CC2)c1.Cl	5.99
C=CC(=O)N1CC2CC1(C(N)=O)C2	1.3
Cc1ccc(CN(C)C(=O)CCl)c(C)c1	65.7
O=C1OCCC1N1CCN(c2ccccc2F)CC1 (stereo not drawn)	5.08
CC1CN(C(=O)C=Cc2ccnn2C)CCO1 (stereo not drawn)	0.988
C=CC(=O)N1CCCC1Cc1cccc(OC)c1 (stereo not drawn)	6.77
C=CC(=O)Nc1cc(O)nc2c1CCC2	7.33
CN(C)C=CC(=O)C1CCCCC1	5.4
O=C(Cc1ccc(S(=O)(=O)F)cc1)Nc1ccccc1Cl	12.8
Cc1nc(C=CC(=O)N2CCCC(C)C2CN)cs1 (stereo not drawn)	4.49
CCc1nc(C#N)c(NCc2ccncc2)o1	9.41
Cn1c(=O)oc2cc(C(=O)CCl)ccc21	0.517
C=CC(=O)N1CCNC(=O)C1c1ccccc1Cl (stereo not drawn)	8.11
COc1ccc(O)c(C=O)c1	19.6
N#Cc1ccc(N2CCOC(c3cccs3)C2)cn1 (stereo not drawn)	4.98
C=CC(=O)NC1CC2CCC1(C)C2(C)C (stereo not drawn)	12.8
C=CC(=O)Nc1noc2ccccc12	6.75
O=C1CCC(=O)N1CCC(=O)N1CCCc2ccccc21	6.54
NS(=O)(=O)C=Cc1ccc(F)cc1	7.7
O=C1CCS(=O)(=O)O1	5.42
Cc1cc(C)c(NC(=O)CCl)c(Cl)c1	-0.269

SMILES	Inhibition % [%]
Cc1nnc(CCCCl)o1	5.68
CCc1cccc2c(C=C(C#N)C(N)=O)c[nH]c12	8.29
O=C(NNS(=O)(=O)c1ccc(S(=O)(=O)F)cc1)C1CCC1	10.2
O=S(=O)(F)CC1CCOCC1	10.5
Cc1nc(C=CC(=O)N2CCCC2c2ccccc2)cs1 (stereo not drawn)	18.9
CCCn1c(C)nnc1CN(C#N)c1cc(C)ccc1F	20.1
C=CC(=O)NCCC1CCOC1 (stereo not drawn)	4.58
CC(C)(C)OC(=O)N1CCC(CB2OC(C)(C)C(C)(C)O2)CC1	-1.21
C=CC(=O)N1CCCN(C=O)CC1	15.7
CC(C)(C)OC(=O)Nc1ccc(B2OC(C)(C)C(C)(C)O2)cn1	5.39
C=CC(=O)N1C[C@@H]2C[C@H]1CS2	4.18
CCC(NC(=O)CCl)c1ccc(Br)cc1 (stereo not drawn)	5.16
Cc1cccc(NC(=O)c2ccccc2NC(=O)CCl)c1	1.55
O=S(=O)(C=Cc1ccccc1)N1C[C@@H](O)[C@@H](O)C1	9.02
C=CC(=O)NC1CCN(C(C)=O)CC1CC (stereo not drawn)	3.91
CCc1ccccc1S(=O)(=O)N[C@H]1CCOC1=O	5.65
CC1(C)OB(c2ccc(F)cc2C#N)OC1(C)C	2.79
O=C(NC1CCC(O)CC1)N1CCCCC1C1OCCO1 (stereo not drawn)	7.22
C=CC(=O)NCc1cnc(N2CCOCC2)s1	10.4
COc1cc(C=C(C#N)C(N)=O)ccc1OC(F)F	6.58
O=C(O)C1CCN(C=CC(=O)C(F)(F)F)CC1	7.05
O=C(NCCS(=O)(=O)F)c1ccccc1	13.4
CC(O)CCN(C)c1ccc(Cl)c(C#N)n1 (stereo not drawn)	8.44
N#CC=C(Cl)c1ccc(F)cc1	2.3
Cc1oncc1C(=O)CCl	40.2
CC(=O)Nc1cccc(OC(=O)N(C)C)c1	10.1

SMILES	Inhibition % [%]
CS(=O)(=O)c1ccc(CNC(=O)CCl)cc1	10.2
C=CC(=O)N1CCOCC2(CCCC2)C1	2.26
C=CC(=O)Nc1cccc(CN2CCNC(=O)C2)c1	5.12
C=CC(=O)NCCN1CCSCC1	18.6
N#Cc1ccc(NCCc2cn3c(n2)CCCC3)cn1	4.36
Cc1ccc(Oc2cnc(C#N)cn2)cc1F	7.07
Nc1cc(=O)[nH]c(S)n1	6.98
CC1CN(C(=O)CCN2CCSC2=O)C(C)CO1 (stereo not drawn)	4.2
Cn1ncnc1CCNC(=O)c1cccnc1S	5.98
CC(C)c1cccc(C(C)C)c1NC(=O)CCl	2.79
COc1ccc(CNC(=O)n2ccnc2)cc1OC	6.72
CC(C)N(C)C(=O)CCc1ccc(S(=O)(=O)F)cc1	4.68
O=C1NCCC1CCCl (stereo not drawn)	4.25
Cl.NC1CN(c2ccccc2)C1=O (stereo not drawn)	14.1
CS(=O)(=O)C(C#N)=Cc1ccc(-c2ccccc2Cl)o1	5.87
OB(O)c1ccc(F)cc1OCCc1ccccc1	4.69
C=CC(=O)NC1CCC2(CC1)CC2(F)F (stereo not drawn)	3.45
O=C(CCl)Nc1cc(C2CCCC2)nn1-c1ccccc1	45.7
CC1CC(N2CC=C(c3ccccc3)CC2)C(=O)O1 (stereo not drawn)	6.64
Cl.N#Cc1ncccc1CN1CCCCC1	5.62
C=CC(=O)N1CC2(CCOCC2)C1C(C)C (stereo not drawn)	7.75
CC1CCC(C)N(C(=O)c2cccc(B(O)O)c2)C1 (stereo not drawn)	2.89
C=CC(=O)NCc1cn(C2CCC2)nn1	4.59
C=CC(=O)N1C2CCC1CC(OCC)C2 (stereo not drawn)	13.4
ClCCCn1cccn1	5.21
N#Cc1c(NC(=O)CCCl)sc2c1CCC2	3.99

SMILES	Inhibition % [%]
Cc1cc(CNC(=O)CCl)ccc1F	18
CN1CCN(CCCCl)CC1.Cl.Cl	9.44
C=CC(=O)N1CCC(CN2CCCC2=O)C1 (stereo not drawn)	0.453
CN1CCN(CCC2OCCO2)CC1	5.56
CC1(C)NC(=O)N(CCS(=O)(=O)F)C1=O	-4.21
CC(NC(=O)CCl)c1ccc(Br)cc1 (stereo not drawn)	6.1
CC(C)N1CCN(CCCl)CC1.Cl	10.8
CC1(C)OB(c2ccc(S(=O)(=O)C(F)(F)F)cc2)OC1(C)C	4.13
C=CC(=O)N[C@@H]1CCO[C@H]1c1ccnn1C(C)C (racemic)	9.62
Cl.ClCCCN1CCCC1	6.72
C=CC(=O)NCc1nccn1C	8.54
COc1ccc(C(C)(C)C)cc1NC(=O)CCl	10.8
Cc1ccc(C=CS(=O)(=O)N(C)CC(N)=O)cc1	8.82
Cc1nnnn1C(=O)N(C)C	10.7
COc1ccc(F)cc1S(=O)(=O)n1ccnc1C	3.76
N#Cc1ccc(N2CCCC(N3CCCCCC3)C2)cn1 (stereo not drawn)	5.26
O=C(CCl)Nc1ccc2c(c1)OCCCO2	57.7
N#CC(=Cc1ccco1)C(=O)Nc1nnc(C(F)F)s1	4.49
O=S(=O)(OCC1CCCO1)c1ccc(Cl)cc1 (stereo not drawn)	13.5
C=CC(=O)N[C@H]1C[C@H](c2cccc(C)c2)C1	6.65
Cc1nonc1COc1ccc(N2CCC2=O)cc1	5.93
N#Cc1ncn(CC(O)c2ccc(C(F)(F)F)cc2)n1 (stereo not drawn)	2.57
